Assay results from EPA's CvTdb concentration-time database.
The source gives many values for each of these; only a part stands here.

Legend:
Assay in all cases: concentration in plasma after dosing
[1] = system: Rat; details: dosed: Isoeugenol, 70 mg/kg, oral, Female, F344/N
[2] = system: Rat; details: dosed: Isoeugenol, 70 mg/kg, oral, Female, F344/N; remark: listed apart in the source
[3] = system: Rat; details: dosed: Isoeugenol, 17 mg/kg, iv, Male, F344/N
[4] = system: Rat; details: dosed: Isoeugenol, 140 mg/kg, oral, Female, F344/N
[5] = system: Rat; details: dosed: Isoeugenol, 17 mg/kg, iv, Male, F344/N; remark: listed apart in the source
[6] = system: Rat; details: dosed: Isoeugenol, 17 mg/kg, iv, Female, F344/N
[7] = system: Rat; details: dosed: Isoeugenol, 17 mg/kg, iv, Female, F344/N; remark: listed apart in the source
[8] = system: Rat; details: dosed: Isoeugenol, 140 mg/kg, oral, Male, F344/N
[9] = system: Rat; details: dosed: Isoeugenol, 17 mg/kg, iv, Male, F344/N; remark: listed apart in the source
[10] = system: Rat; details: dosed: Isoeugenol, 17 mg/kg, iv, Male, F344/N; remark: listed apart in the source
[11] = system: Rat; details: dosed: Isoeugenol, 140 mg/kg, oral, Female, F344/N; remark: listed apart in the source
[12] = system: Rat; details: dosed: Isoeugenol, 17 mg/kg, iv, Female, F344/N; remark: listed apart in the source
[13] = system: Rat; details: dosed: Isoeugenol, 140 mg/kg, oral, Male, F344/N; remark: listed apart in the source
[14] = system: Rat; details: dosed: Isoeugenol, 70 mg/kg, oral, Male, F344/N
[15] = system: Rat; details: dosed: Isoeugenol, 17 mg/kg, iv, Female, F344/N; remark: listed apart in the source
[16] = system: Rat; details: 96 h; dosed: Perfluorohexane-1-sulphonic acid – potassium salt; 16 mg/kg; oral; Female; Harlan Sprague Dawley
[17] = system: Rat; details: 24 h; dosed: Perfluorohexane-1-sulphonic acid – potassium salt; 16 mg/kg; oral; Female; F344
[18] = system: Rat; details: 6 h; dosed: Perfluorohexane-1-sulphonic acid – potassium salt; 16 mg/kg; oral; Female; Harlan Sprague Dawley
[19] = system: Rat; details: 12 h; dosed: Perfluorohexane-1-sulphonic acid – potassium salt; 16 mg/kg; oral; Female; F344
[20] = system: Rat; details: dosed: Perfluorohexane-1-sulphonic acid – potassium salt, 4 mg/kg, Female, F344
[21] = system: Rat; details: dosed: Perfluorohexane-1-sulphonic acid – potassium salt, 16 mg/kg, oral, Male, F344
[22] = system: Rat; details: dosed: Perfluorohexane-1-sulphonic acid – potassium salt, 4 mg/kg, oral, Female, F344
[23] = system: Rat; details: dosed: Perfluorohexane-1-sulphonic acid – potassium salt, 32 mg/kg, oral, Male, Harlan Sprague Dawley
[24] = system: Rat; details: dosed: Perfluorohexane-1-sulphonic acid – potassium salt, 4 mg/kg, Female, F344; remark: listed apart in the source
[25] = system: Rat; details: dosed: Perfluorohexane-1-sulphonic acid – potassium salt, 32 mg/kg, oral, Female, Harlan Sprague Dawley
[26] = system: Rat; details: dosed: Fluorotelomer alcohol 8+2, 40 mg/kg, oral, Female, Harlan Sprague Dawley
[27] = system: Rat; details: 9 h; dosed: Fluorotelomer alcohol 8+2; 160 mg/kg; oral; Female; Harlan Sprague Dawley
[28] = system: Rat; details: 1 h; dosed: Fluorotelomer alcohol 8+2; 80 mg/kg; oral; Female; Harlan Sprague Dawley
[29] = system: Rat; details: dosed: Fluorotelomer alcohol 8+2, 48 mg/kg, oral, Male, Harlan Sprague Dawley
[30] = system: Rat; details: 192 h; dosed: Fluorotelomer alcohol 8+2; 80 mg/kg; oral; Female; Harlan Sprague Dawley
[31] = system: Rat; details: dosed: Fluorotelomer alcohol 8+2, 48 mg/kg, oral, Male, Harlan Sprague Dawley; remark: listed apart in the source
[32] = system: Rat; details: dosed: Fluorotelomer alcohol 8+2, 160 mg/kg, oral, Female, Harlan Sprague Dawley
[33] = system: Rat; details: 6 h; dosed: Fluorotelomer alcohol 8+2; 80 mg/kg; oral; Female; Harlan Sprague Dawley

C/C=C/c1ccc(O)c(OC)c1 [Isoeugenol]
Details	concentration in plasma [ng/mL]
[1], 0.5 h	1260
[1], 6 h	158
[2], 1.5 h	219
[2], 10 min	2080
[3], 4 h	17.6
[3], 5 min	7810
[4], 2 h	824
[4], 10 min	1980
[5], 2 min	10400
[5], 4 h	16
[6], 3 h	83.5
[6], 10 min	4610
[7], 6 h	25.3
[7], 10 min	3870
[8], 4 h	618
[8], 5 min	635
[9], 0.5 h	995
[9], 3 h	24.5
[10], 2 h	123
[10], 2 min	12200
[11], 1.5 h	644
[11], 8 h	498
[12], 2 min	8460
[12], 4 h	47.4
[13], 6 h	813
[13], 20 min	2170
[14], 0.75 h	148
[14], 2 h	63.1
[15], 5 h	20.7
[15], 5 min	8280

O=S(=O)([O-])C(F)(F)C(F)(F)C(F)(F)C(F)(F)C(F)(F)C(F)(F)F.[K+] [Perfluorohexane-1-sulphonic acid – potassium salt]
Details	concentration in plasma [ng/mL]
[16]	20100
[17]	143000
[18]	82600
[19]	126000

Details	concentration in plasma [ng/mL]
[20], 0.5 h	39700
[20], 24 h	30000
[20], 1200 h	6940
[21], 0.25 h	33200
[21], 864 h	26000
[22], 0.25 h	10100
[22], 12 h	27600
[22], 192 h	2510
[23], 3 h	179000
[23], 24 h	160000
[23], 1200 h	27400
[24], 5 min	63600
[24], 6 h	26100
[24], 192 h	590
[25], 0.25 h	72000
[25], 12 h	151000
[25], 192 h	8830

O=C(O)CCC(F)(F)C(F)(F)C(F)(F)C(F)(F)C(F)(F)C(F)(F)C(F)(F)F [Fluorotelomer acid 7+3]
Details	concentration in plasma [ng/mL]
[26], 0.5 h	287
[26], 9 h	1690
[29], 0.75 h	615
[29], 12 h	782
[31], 0.75 h	83.7
[31], 12 h	297
[32], 48 h	1170
[32], 192 h	115

Details	concentration in plasma [ng/mL]
[27]	4450
[28]	1200
[30]	529
[33]	4380
